# Assay results from the supplement of paper PMC5499739.
# In all, about 16,000 sequences were measured (“Z-score”: median about -0.37, highest 2% from about 3.1 on). This is one part of the list.
# System: RBM10 RRM1-ZnF-RRM2 (GST-tagged construct)
# Assay: RNAcompete 7-mer binding Z-score; higher = stronger binding preference
# How it was run: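 Each heptamer motif was given a one-sided Z-score for enrichment across the probes that contained it. GST-tagged RBM10 constructs (20 pmol) were combined with 1.5 nmol of a designed pool of 241 399 RNAs of up to 41 nt, transcribed from microarray-derived DNA templates. Binding took place in 1 ml Hepes pH 7.8 buffer containing KCl, NaCl, glycerol, DTT, BSA and glutathione Sepharose beads for 30 min at 4°C. After four 2-min washes at 4°C, bound RNA was identified by microarray hybridisation.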
row,Sequence,RNAcompete 7-mer binding Z-score
1,CAUUAGU,-0.347
2,AGUCUCU,-0.679
3,CGUCCUA,-0.759
4,UUCCUGU,-0.843
5,AGUUGGG,2.77
6,CGGCUCU,-0.73
7,UAAGCCU,-0.879
8,GACGGCU,-0.417
9,UCUUGCA,-1.05
10,GCAUAUG,0.294
11,GGUGCCG,1.01
12,AACCGCC,-0.868
13,UUUAUGC,-0.792
14,CCAGUUC,-0.726
15,GGGUUGU,1.97
16,ACGGACC,0.0677
17,UUACCUG,-0.766
18,CCUGGCU,-0.73
19,UGCAGGU,0.982
20,AGUAGAC,0.286
21,UUUUUGU,-0.628
22,UCCCCAA,-0.639
23,GGUCCCG,0.286

row,Sequence,RNAcompete 7-mer binding Z-score
1,GAUCAAU,0.0823
2,CUCUCGA,-0.719
3,UCUGAUG,-0.661
4,UAACCAU,-0.526
5,CAGAAAU,-0.628
6,GUCGGGA,1.31
7,CGGCCAA,-0.369
8,CGUACGG,0.672
9,AAACUAC,-0.475
10,GGUACCA,0.891
11,UAAUGUU,-0.366
12,UAUAAGA,-0.18
13,CUAUAAG,-0.282
14,ACAAUUC,-0.661
15,CGCCGAA,-0.646
16,GGCUGCG,0.884
17,CAGGUCA,0.53
18,CGGCCGC,-0.49
19,CAGCCAG,-0.3
20,ACGUCUA,-0.632
21,GCUCCGA,-0.65
22,ACUAGUC,-0.544
23,GCAACGC,-0.0379

row,Sequence,RNAcompete 7-mer binding Z-score
1,GAUAUAU,-0.078
2,CAUAGAA,0.0495
3,CGUACCA,-0.504
4,UUAUAUU,-0.639
5,AUACGGA,1.33
6,UGUGCAC,-0.224
7,UGAUUGC,-0.38
8,UAUGUAA,-0.38
9,UCGACCU,-0.85
10,AAAGUGA,1.05
11,UUUGAAU,-0.639
12,ACUCUCC,-0.806
13,UACAUUU,-0.646
14,UCUCUCG,-0.814
15,AUUGCAC,-0.49
16,CAACCUU,-0.963
17,UCCUGGU,-0.548
18,AUUUUUU,-0.788
19,AGGACGA,0.778
20,UUCUACA,-0.719
21,UGUAUCG,-0.417
22,CUUCAAU,-0.723
23,GACCUCC,-0.938

row,Sequence,RNAcompete 7-mer binding Z-score
1,AAAAUCC,-0.57
2,GGUAGUA,1.23
3,UUGCUGC,-0.632
4,GAACAUA,-0.26
5,GCCCGGC,-0.457
6,UGACUGA,-0.103
7,CCAGUCC,-0.832
8,UUAGCUU,-0.661
9,GAACCAC,-0.446
10,CGCCCUC,-0.708
11,UUCGACU,-0.694
12,CAUUAAA,-0.515
13,ACUAGAU,-0.42
14,CCUUUUG,-0.959
15,UAAUGGC,0.377
16,GUUGGUG,2.12
17,CUAAGCU,-0.854
18,UGGCUCC,-0.588
19,GGAGAAC,1.93
20,AUGAUUG,0.323
21,CUUUUUC,-0.748
22,UAAAGCC,-0.661
23,GUGAUAU,0.151

row,Sequence,RNAcompete 7-mer binding Z-score
1,GGACGAA,0.986
2,ACGAGUU,-0.0343
3,AGCCCCA,-0.639
4,CUUGGAA,-0.00877
5,UACCUGC,-0.887
6,UGGAUUG,1.37
7,AUAAACU,-0.537
8,GCCCGAU,-0.679
9,CAAUCAU,-0.562
10,UUCAUGA,-0.581
11,UAGGGGC,2.34
12,UCUUGUU,-0.766
13,UAUCACU,-0.803
14,GUACGAA,0.308
15,GCUGGGC,0.567
16,CGUGCCC,-0.548
17,UCCCGCA,-0.726
18,AUGUAUA,0.0204
19,UUGCACC,-0.632
20,AACUGCG,-0.344
21,UGUACCG,-0.304
22,CCUCUCU,-0.854
23,AGUCGCG,-0.0634

row,Sequence,RNAcompete 7-mer binding Z-score
1,UGCGACC,-0.635
2,AGCCACC,-0.715
3,CAUUGUG,-0.213
4,GCAGCGG,2.14
5,AAACUGU,-0.442
6,UGGCCAA,-0.125
7,UUCAUGC,-0.61
8,AAGGCCU,-0.195
9,GUUGACG,0.396
10,AACAAUG,0.363
11,GGACAAG,2.12
12,AGUGUCC,-0.482
13,CCGAACG,-0.224
14,GUGUUCC,-0.537
15,CUAACCC,-0.766
16,GCGGCAA,0.592
17,AAGGUCC,0.76
18,UGAAGGA,2.95
19,GUAGUAC,0.399
20,UCUGGAG,0.0641
21,AGAGGGC,1.02
22,AAAGAGC,0.377
23,GUUGAAC,0.119

row,Sequence,RNAcompete 7-mer binding Z-score
1,GGCUCAA,-0.122
2,ACGACGG,1.08
3,CAGGUCU,-0.606
4,CCUCGGU,-0.446
5,AACGUAC,-0.384
6,GCGUGUU,-0.224
7,CGACUGU,-0.774
8,UGGGCAU,1.6
9,GAUAUUG,0.283
10,ACGCGAC,-0.384
11,UAAACCU,-0.708
12,CCCGAUU,-0.854
13,CUCAGAA,-0.446
14,UCGCGUC,-0.449
15,UUCGCAA,-0.817
16,UCAAGUG,-0.0488
17,AUACUCG,-0.668
18,AAGUAAG,0.927
19,CACGGGG,2.77
20,UAUAAUA,-0.471
21,CACGAAC,-0.621
22,AUAGCGC,-0.315
23,CGCUGGC,-0.504

row,Sequence,RNAcompete 7-mer binding Z-score
1,UUACGUC,-0.595
2,UCUAUUG,-0.788
3,CUUCCCU,-0.876
4,UUAUUGC,-0.661
5,UAGAAGU,0.319
6,CUGGCGU,-0.213
7,ACCGACG,-0.296
8,CCGCUCA,-0.734
9,UGCUAAA,-0.42
10,CUUCACA,-0.846
11,AACAGGG,3.73
12,CCAUACG,-0.606
13,CCUGUUU,-0.974
14,UUCUAAU,-0.723
15,UUGGGUA,1.95
16,UAGUUGA,0.0859
17,GGACUGA,0.814
18,CCGCUAU,-0.872
19,AGGCGUC,0.0495
20,CCCAAUU,-0.744
21,AUGGGAA,4.29
22,GGCGAUG,2.16
23,CCAGACA,-0.526
